From PubChem BioAssay AID1508623 (National Center for Advancing Translational Sciences (NCATS), 2021) come the findings set out here.

Hit rate of the full screen: of about 48,000 compounds, about 450 (0.94%) were called active. Not shown: some 19% with an inconclusive outcome. Calls come from the whole dose curve; as a rule, active = well fitted inhibition curve with a large enough effect; inconclusive = small, poorly fitted or top-dose-only effect; inactive = no such curve, though single readings can be large or run the other way. This is one part of the list.

The nature of this test: Primary qHTS for Identification of Small Molecule Inhibitors of Huntingtin Promoter Activity. Note: nearly all actives have a fitted effect of over 50% in size. The settings on record: HEK293 HTT promoter firefly luciferase reporter (activity 0% = vehicle and -100% = no light), 24 h; series mostly up to 57.5 µM; activity change, negative = inhibition: at the top concentration. Put shortly:
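HEK293 luciferase promoter-reporter cells (2,500/well) plated 24 h, then compounds added at up to 57.5 uM final for 24 h at 37 °C. Firefly luminescence by Dual-Glo, normalized to vehicle (0%) and zero RLU (-100%).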
As to `Clc1ccc(CCNc2nc3ccccc3c3nc(-c4ccccc4)nn23)cc1`, the “activity change, negative = inhibition” value is inactive: -1.53%.

Regarding `Cc1ccc(C(=O)N(Cc2ccco2)Cc2ccco2)cc1`, the “activity change, negative = inhibition” value is inactive: -0.218%.

Consider `CCOc1cc(CNC(=O)c2ccccc2NC(=O)c2nsc3ccccc23)ccc1OC`, for which the “activity change, negative = inhibition” value was inactive: 20.4%.

For `CCOc1ccc(NC(=O)Cn2cc(C(=O)c3cccs3)c3ccccc32)cc1`, the “activity change, negative = inhibition” value is inactive: -15.8%.

As for `CCOc1cccc(CC(=O)NCc2ccc3c(c2)CCN3C(=O)c2ccc(F)cc2)c1OCC`, the “activity change, negative = inhibition” value is inactive: -16%.

On to `CC1(C)S[C@@H]2[C@H](NC(=O)C(C(=O)O)c3ccccc3)C(=O)N2[C@H]1C(=O)O` (some centres not stated), for which the “activity change, negative = inhibition” value is inactive: -1.56%.

For `COc1cccc(-c2nc3c(c(SCc4ccccc4)n2)Cc2c(CO)cnc(C)c2O3)c1`, the “activity change, negative = inhibition” value was inactive: 2.54%.

Consider `NC(=O)c1cc(S(=O)(=O)NCc2ccccc2)cs1`, for which the “activity change, negative = inhibition” value is inactive: -16.8%.

`CCCn1c(=O)n(-c2ccccc2)c(=O)c2sc3ccccc3c21`: the “activity change, negative = inhibition” value is inactive: -20.5%.

Take `CN(C(=O)CCNC(=O)Cn1cnc2ccccc2c1=O)c1ccccc1F`: the “activity change, negative = inhibition” value was inactive: -2.9%.

Turning to `C=CCc1c(C)nc2nc(SCC(=O)Nc3ccccc3CC)nn2c1C`, the “activity change, negative = inhibition” value is inactive: -1.16%.

For `CCOC(=O)CSc1nc2cc3c(cc2c(=O)n1CCCC(=O)NCc1ccc2c(c1)OCO2)OCO3`, the “activity change, negative = inhibition” value is inactive: -17.8%.

As to `C=Cc1ccc(CSc2nc(-c3ccc(OC)cc3)nc3c2Cc2c(CO)cnc(C)c2O3)cc1`, the “activity change, negative = inhibition” value is inactive: -14.5%.

`CC(C)Cc1nn2c(=O)cc(COC(=O)c3cccc(NC(=O)CCc4ccccc4)c3)nc2s1`: the “activity change, negative = inhibition” value is inactive: -5.94%.

As to `COc1ccccc1C(=O)Nc1nc2ccc(S(=O)(=O)N3CCCC3)cc2s1`, the “activity change, negative = inhibition” value was inactive: -14.4%.

`NCCc1nnc(SCc2ccc(Cl)cc2)o1`: the “activity change, negative = inhibition” value was inactive: -1.51%.

Regarding `COc1ccc(C(=O)CN2C(=O)N(c3cc(C)cc(C)c3)S(=O)(=O)c3ccccc32)cc1`, the “activity change, negative = inhibition” value is inactive: -25.1%.

In the case of `CCCCC(=O)Nc1cccc(OCc2cc(=O)n3ccccc3n2)c1`, the “activity change, negative = inhibition” value was inactive: 49.2%.

Take `Cc1ccc(Nc2c(-c3ccc(C)cc3)nc3cnccn23)cc1`: the “activity change, negative = inhibition” value is inactive: -21.6%.

For the molecule `COc1ccccc1CNC(=O)Cn1ncc2c(=O)oc3ccc(C)cc3c21`, the “activity change, negative = inhibition” value is inactive: 8.06%.

`Cc1ccccc1CS(=O)(=O)Cc1ccc(C(=O)NCCc2ccccc2)o1`: the “activity change, negative = inhibition” value was inactive: -22.4%.

Regarding `CCOC(=O)c1ccc(Nc2c(-c3ccc(O)cc3)nc3nc[nH]n23)cc1`, the “activity change, negative = inhibition” value is inactive: -11.3%.

Regarding `CCOC(=O)C1CCCN(c2ncnc3c2cnn3-c2ccc(C)c(Cl)c2)C1` (configuration not stated), the “activity change, negative = inhibition” value was inactive: -8.2%.

Regarding `Cc1ccc(NC(=O)CSc2nc3c(c(=O)[nH]2)CN(Cc2ccc4c(c2)OCO4)CC3)cc1C`, the “activity change, negative = inhibition” value is inactive: -8.61%.

`Cn1c(=O)c2c(SCC(=O)NCc3ccco3)nc(-c3ccccc3Cl)nc2n(C)c1=O`: the “activity change, negative = inhibition” value is inactive: -20.1%.

`CC(C)c1ccc(CNCCSc2nnnn2C)cc1`: the “activity change, negative = inhibition” value is inactive: -6.3%.

With `CC(=O)Nc1c(C)nn(-c2ccccc2)c1N1CCC(C(=O)Nc2cc(Cl)ccc2C)CC1`, the “activity change, negative = inhibition” value is inactive: 4.13%.

Take `CCOc1ccc(NC(=O)C(C)Sc2nnc3cc(C)c4ccccc4n23)cc1` (configuration not stated): the “activity change, negative = inhibition” value was inactive: -0.34%.

For the molecule `C=C[C@@]1(C)CC(=O)[C@]2(O)[C@@]3(C)[C@@H](O)CCC(C)(C)[C@@H]3[C@H](O)[C@H](OC(C)=O)[C@@]2(C)O1`, the “activity change, negative = inhibition” value was inactive: -1.54%.

In the case of `O=C(O)[C@@H]1CSCN1`, the “activity change, negative = inhibition” value is inactive: -5.95%.

`Cc1cccc(NC(=O)C(=O)NCC(c2cccnc2)N2CCOCC2)c1` (configuration not stated): the “activity change, negative = inhibition” value is inactive: -7.66%.

On to `CCCOc1ccc(C2c3c(-c4ccccc4O)n[nH]c3C(=O)N2Cc2ccncc2)cc1OCC` (configuration not stated), for which the “activity change, negative = inhibition” value was inactive: -23.9%.

Take `Cc1cc2nc3ccc(=[N+](C)C)cc-3sc2cc1N`: the “activity change, negative = inhibition” value was inactive: -11.8%.

`COc1ccc(C)cc1NC(=O)C(=O)NCCc1csc(-c2ccc(C)cc2)n1`: the “activity change, negative = inhibition” value is inactive: 6.08%.

In the case of `CCOC(=O)c1c(C)c(C(=O)NCCc2ccc(OC)cc2)c(C)n1C`, the “activity change, negative = inhibition” value is inactive: 2.76%.

Take `CCc1nn(CC(=O)Nc2cccc(C)c2C)c(=O)c2cc3sccc3n12`: the “activity change, negative = inhibition” value was inactive: -1.52%.

For the molecule `CN(C(=O)CSc1cn(CC(=O)N2CCCCC2)c2ccccc12)c1ccccc1`, the “activity change, negative = inhibition” value was inactive: -5.68%.

Regarding `O=C(Cc1ccc(F)cc1)N1CCC(c2nc3c(nnn3Cc3ccc(Cl)cc3)c(=O)[nH]2)CC1`, the “activity change, negative = inhibition” value is inactive: -26.5%.

Consider `COc1ccc(-c2noc(C3CC(=O)N(c4cc(C)cc(C)c4)C3)n2)cc1` (configuration not stated), for which the “activity change, negative = inhibition” value is inactive: 0%.

For the molecule `O=C(CCCCCN1C(=O)c2cccc3cccc(c23)C1=O)NO`, the “activity change, negative = inhibition” value was inactive: 176%.

Take `CCC(C)NC(=O)c1ccc2c(c1)N(Cc1ccccc1)C(=O)c1ccccc1S2(=O)=O` (configuration not stated): the “activity change, negative = inhibition” value was inactive: -16%.

On to `CN1CCN(CCCNC(=O)c2cnn(-c3ccccc3)c2C2CCN(C(=O)OC(C)(C)C)CC2)CC1`, for which the “activity change, negative = inhibition” value was inactive: 0.675%.

With `CCC(Oc1ccccc1)C(=O)Nc1ccccc1OCc1cc(=O)n2ccccc2n1` (configuration not stated), the “activity change, negative = inhibition” value was inactive: -5.2%.

Consider `CC1=C(C(=O)Nc2ccc(Cl)cc2)C(C(C)C)n2nc(SCc3cccc(C)c3)nc2N1` (configuration not stated), for which the “activity change, negative = inhibition” value was inactive: 1.85%.

On to `Cc1c2cnn(-c3ccccc3)c(=O)c2c(C)n1CCCC(=O)Nc1ccc(F)cc1F`, for which the “activity change, negative = inhibition” value is inactive: -18.2%.

For `CC(C)(C)C1CCc2onc(C(=O)Nc3sc4c(c3C(N)=O)CCCC4)c2C1` (configuration not stated), the “activity change, negative = inhibition” value is inactive: 5.62%.

Turning to `Cc1c(Cl)cccc1NC(=O)CCS(=O)(=O)c1ccc(Br)s1`, the “activity change, negative = inhibition” value is inactive: -2.79%.

On to `NC(=O)c1cc(S(=O)(=O)NCC2CCC(C(=O)Nc3cccc(Cl)c3)CC2)cs1` (configuration not stated), for which the “activity change, negative = inhibition” value is inactive: -32.3%.

Consider `CCCc1nnc(NC(=O)c2nc(S(=O)(=O)Cc3ccc(C)cc3)ncc2Cl)s1`, for which the “activity change, negative = inhibition” value is inactive: -31.2%.

`O=C(c1ccc2c(Cl)c3c(nc2c1)CCCC3)N1CCN(c2ccccc2)CC1`: the “activity change, negative = inhibition” value was inactive: -0.0756%.

Take `Cc1ccc(C)c(NC(=O)CCNS(=O)(=O)c2ccc3c(c2)CCCC(=O)N3)c1`: the “activity change, negative = inhibition” value is inactive: -31.4%.

`CN(C(=O)CSc1nnc2[nH]c(=O)cc(-c3ccccc3)n12)c1ccccc1`: the “activity change, negative = inhibition” value is inactive: 10.5%.

For `COCCNC(=O)c1ccc2c(c1)N(Cc1cccc(Cl)c1)C(=O)c1ccccc1S2=O` (configuration not stated), the “activity change, negative = inhibition” value was inactive: -18.1%.

Consider `CCOC(=O)c1cc(-c2ccccc2)n(CC(=O)NCc2ccccc2OC)c1C`, for which the “activity change, negative = inhibition” value is inactive: -17.7%.

With `Cn1c(=O)n(C)c2cc(S(=O)(=O)Nc3ccccc3C(=O)O)ccc21`, the “activity change, negative = inhibition” value is inactive: 4.23%.

Consider `O=C(Nc1ccc(F)c(F)c1)C1CCCN(S(=O)(=O)c2cccc3nonc23)C1` (configuration not stated), for which the “activity change, negative = inhibition” value is inactive: -12.1%.

For `Cc1ccc(C)c(N2CCN(C(=O)CN3C(=O)CSc4c3c(C)nn4-c3ccccc3)CC2)c1`, the “activity change, negative = inhibition” value was inactive: -15.4%.

Take `Cc1cc(C)c2c(=O)cc(CSCC(=O)Nc3nnc(C)s3)[nH]c2c1`: the “activity change, negative = inhibition” value is inactive: 0.508%.

On to `COc1ccc(N(C)C(=O)NCc2noc3ccc(C)cc23)c(OC)c1`, for which the “activity change, negative = inhibition” value is inactive: -5.47%.

On to `CCCNC(=O)Nc1cc(C(=O)NCc2cccc(OCC)c2)ccc1N1CCCC1`, for which the “activity change, negative = inhibition” value was inactive: -22.7%.

On to `COc1ccc(C(=O)CCC(=O)Nc2ccccc2C)cc1`, for which the “activity change, negative = inhibition” value is inactive: 7.09%.

Turning to `COc1ccccc1NC(=O)CSCc1cc(=O)c2c(C)cc(C)cc2[nH]1`, the “activity change, negative = inhibition” value was inactive: -2.89%.
